In the supplement of paper PMC10369915:
The other results are listed elsewhere or left out. No stated cut-off is given here; in the data, active = 3.2 or more and inactive = the rest. Most of these values are background signal.

Assays:
Test in all cases: enrichment score (SH2-bound / input frequency) (ratio); bacterial display of known human phosphotyrosine sites (pTyr-Var adds point mutants) read by sequencing; higher = stronger binding; tyrosines were phosphorylated by kinases first
Conditions in all cases: peptide library: Human pTyr
[1] = target: SHP2 C-SH2 domain E139D
[2] = target: SHP2 C-SH2 domain wild-type
[3] = target: SHP2 N-SH2 domain L43F
[4] = target: SHP2 N-SH2 domain T42A
[5] = target: SHP2 N-SH2 domain T52S
[6] = target: SHP2 N-SH2 domain wild-type

Measured: enrichment score
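Further: displayed peptides selected on beads carrying the immobilized SH2 domain, with library peptides lacking any tyrosine serving as negative controls.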

MKTASGDYIDSSWEL [URP2_HUMAN_11]
inactive: [1] 0.622 | [2] 0.604 | [3] 0.693 | [4] 0.576 | [5] 0.631 | [6] 0.622

TSGYQSGYHSDDTDT [VGFR2_HUMAN_1309]
inactive: [1] 0.816 | [2] 0.582 | [3] 0.693 | [4] 0.826 | [5] 0.815 | [6] 0.644

GSHRLSIYEDWDPFR [TIAM1_HUMAN_1323]
inactive: [1] 0.872 | [2] 0.751 | [3] 0.633 | [4] 0.819 | [5] 0.898 | [6] 0.847

ASSAGLIYIDPSNLR [UBR5_HUMAN_1746]
inactive: [1] 0.676 | [2] 0.519 | [3] 0.971 | [4] 1.03 | [5] 0.884 | [6] 0.551

SGARLGEYEDVSRVE [TBCB_HUMAN_98]
inactive: [1] 0.629 | [2] 0.528 | [3] 0.658 | [4] 0.658 | [5] 0.831 | [6] 0.715

KSGDRSGYSSPGSPG [TAU_HUMAN_514]
inactive: [1] 0.875 | [2] 0.69 | [3] 0.61 | [4] 0.781 | [5] 0.785 | [6] 0.66

CGAYPYAYPPMPAMV [TNIP1_HUMAN_552]
inactive: [1] 1.32 | [2] 1.25 | [3] 1.04 | [4] 1.11 | [5] 1.43 | [6] 1.55

EDGGDDIYEDIIKVE [VAV2_HUMAN_172]
inactive: [1] 1.76 | [2] 1.3 | [3] 2.01 | [4] 1.48 | [5] 1.65 | [6] 1.45

AIPSNTDYPGPHSFD [TP63_HUMAN_171]
inactive: [1] 0.556 | [2] 0.433 | [3] 0.607 | [4] 0.599 | [5] 0.442 | [6] 0.486

VAQGNENYAGIAARD [TLN1_HUMAN_1116]
inactive: [1] 0.744 | [2] 0.706 | [3] 0.751 | [4] 0.591 | [5] 0.629 | [6] 0.65

GDSHPVLYQSLKDLL [UBE3A_HUMAN_659]
inactive: [1] 1.2 | [2] 1.04 | [3] 1.06 | [4] 1.24 | [5] 1.06 | [6] 1.29

GQRTQENYEGNEEVS [USP9Y_HUMAN_2541]
inactive: [1] 1.02 | [2] 0.801 | [3] 1.04 | [4] 1.59 | [5] 1.54 | [6] 1.39

GGELKTGYLSIVMDP [VGFR2_HUMAN_801]
inactive: [1] 0.901 | [2] 1.06 | [3] 1.04 | [4] 1.43 | [5] 0.991 | [6] 1.03

TSGAQSGYHSDDTDT [VGFR2_HUMAN_1309_YA]
inactive: [1] 0.739 | [2] 0.548 | [3] 0.66 | [4] 0.599 | [5] 0.669 | [6] 0.809

DPGKNETYQAAGFSH [TRPV4_HUMAN_805_YA]
inactive: [1] 0.615 | [2] 0.781 | [3] 0.511 | [4] 0.596 | [5] 0.562 | [6] 0.747

DANSVVLYSTPPIGG [VGFR1_HUMAN_1333_YA]
inactive: [1] 0.505 | [2] 0.417 | [3] 0.479 | [4] 0.406 | [5] 0.559 | [6] 0.563

DIYKDPDYVRKGSAR [VGFR3_HUMAN_1068]
inactive: [1] 1.16 | [2] 0.841 | [3] 0.983 | [4] 0.959 | [5] 0.936 | [6] 0.832

TKARWTEYGLTFTEK [VDAC1_HUMAN_67_YA]
inactive: [1] 0.937 | [2] 1.15 | [3] 0.843 | [4] 0.997 | [5] 1.27 | [6] 1.23

EAEGDEIYEDLMRSE [VAV1_HUMAN_174]
inactive: [1] 1.38 | [2] 1.1 | [3] 1.13 | [4] 1.29 | [5] 1.35 | [6] 1.52

KKIYNGDYYRQGRIA [UFO_HUMAN_702]
inactive: [1] 1.75 | [2] 1.7 | [3] 1.61 | [4] 1.61 | [5] 2.3 | [6] 2.22

FGLSRKIYSGDAARQ [TYRO3_HUMAN_681_YA]
inactive: [1] 0.836 | [2] 0.709 | [3] 0.625 | [4] 0.587 | [5] 0.888 | [6] 1

DDLEDELYAQKLKAK [TPM1_HUMAN_261_YA]
inactive: [1] 0.803 | [2] 0.66 | [3] 0.738 | [4] 0.778 | [5] 0.84 | [6] 0.947

AASGGAAYTKRALEE [THRAP3_HUMAN_344_YA]
inactive: [1] 0.581 | [2] 0.592 | [3] 0.845 | [4] 0.632 | [5] 0.723 | [6] 0.733

KVVAENAYGQFIGPH [TRXR1_HUMAN_281_YA]
inactive: [1] 0.745 | [2] 0.699 | [3] 0.568 | [4] 0.649 | [5] 0.597 | [6] 0.638

VITIEDFYSVPRTIL [UBP24_HUMAN_942]
inactive: [1] 1.14 | [2] 0.937 | [3] 0.733 | [4] 0.919 | [5] 0.967 | [6] 1.07

TKEAEESYMMAKSLM [TMTC3_HUMAN_503]
inactive: [1] 0.513 | [2] 0.575 | [3] 0.561 | [4] 0.654 | [5] 0.723 | [6] 0.652

AASGGAAYTKRYLEE [THRAP3_HUMAN_344]
inactive: [1] 0.808 | [2] 0.719 | [3] 0.857 | [4] 0.85 | [5] 0.911 | [6] 0.925

EITEEQYYMMRRYES [THEMIS_HUMAN_541]
inactive: [1] 2.25 | [2] 2.03 | [3] 2.09 | [4] 2.32 | [5] 2.2 | [6] 2.6

AFSRVQIYHNPTANS [VASP_HUMAN_39]
inactive: [1] 0.544 | [2] 0.562 | [3] 0.758 | [4] 0.543 | [5] 0.65 | [6] 0.583

CGAAPAAYPPMPAMV [TNIP1_HUMAN_552_YA]
inactive: [1] 1.27 | [2] 1.1 | [3] 1.14 | [4] 1.25 | [5] 1.31 | [6] 1.39

KVSSTHYYLLPERPS [TNK2_HUMAN_860]
inactive: [1] 1.59 | [2] 2.78 | [3] 1.47 | [4] 1.52 | [5] 1.47 | [6] 1.98

TKAKVCNYGLTFTQK [VDAC3_HUMAN_67_YA]
inactive: [1] 1.27 | [2] 0.875 | [3] 1.22 | [4] 1.04 | [5] 1.27 | [6] 1.31

VLQSLHKYQPRLHIV [TBX21_HUMAN_266]
inactive: [1] 2.85 | [2] 2.73 | [3] 2.63 | [4] 2.09 | [5] 2.57
active: [6] 3.76

EPMDENCYEQMKARP [TRAT1_HUMAN_79]
inactive: [1] 0.957 | [2] 0.765 | [3] 0.836 | [4] 0.769 | [5] 1.05 | [6] 1.17

EPANAGKYTCQIKND [TITIN_HUMAN_8490]
inactive: [1] 1.21 | [2] 1.09 | [3] 0.816 | [4] 0.984 | [5] 1.33 | [6] 1.03

DQRGQSIYSTSFPQP [TMIG2_HUMAN_222]
inactive: [1] 0.657 | [2] 0.56 | [3] 0.602 | [4] 0.644 | [5] 0.565 | [6] 0.712
